# Assay results: PubChem BioAssay AID651820 (National Center for Advancing Translational Sciences (NCATS), 2012)
# Where “and” joins values, the source holds several entries; their conditions need not be identical. Equal values may be shown once. Screen size: about 340,000 compounds; about 12,000 (3.5%) were called active. The shares of active, inactive and inconclusive entries below differ from those in the screen. Calls follow the shape of the dose curve; as a rule, active = well fitted inhibition curve with a large enough effect; inconclusive = small, poorly fitted or top-dose-only effect, or another doubt; inactive = no such curve, though single readings can be large or run the other way. Where the call is inconclusive, the potency comes from a doubtful curve fit.
# Assay: qHTS Assay for Inhibitors of Hepatitis C Virus (HCV)
# Details: Huh7.5.1 HCVcc-Cre (HCVcc is cell-culture hepatitis C virus) infection, luciferase reporter, 44 h; series mostly up to 41.8 µM
# Method in brief: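 Luciferase read-out (15 sec integration) after a 15 min room-temperature substrate step quantifies HCVcc-Cre infection. Cells, 1,000 per well, had compound added 4 h post-plating, then virus at ~0.5 moi, and were cultured 44 h.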
# Potency is read from the fitted curve at half-maximal effect; tags tell the direction and shape of the fitted curve.
row,SMILES,Potency
1,O=C(O)c1ccc(NC(=O)c2cc3ccccc3o2)cc1,inactive
2,CCOC(=O)CC1COCCN1C(=O)CCc1nnc(-c2ccsc2)o1 (stereo not given),inactive
3,CCOC(=O)N1CCN(C(=S)Nc2cc(S(=O)(=O)N3CCOCC3)ccc2Cl)CC1,"inconclusive: 14.1 µM [inhibitor, single point]"
4,COc1ccccc1C(=O)NC(CCSC)C(=O)OC(C)C(=O)NC1CC1 (stereo not given),"inconclusive: 5.62 µM [inhibitor, single point]"
5,CCCCCCc1cc2cc(S(=O)(=O)c3ccc(C)cc3)c(=O)oc2cc1O,inactive
6,O=C(CSc1nc2ccccc2c(=O)n1CC1CCCO1)Nc1ccc(F)cc1 (stereo not given),"inconclusive: 2 µM [inhibitor, full curve, poor fit]"
7,COc1ccc(/C=N/NC(=O)c2c(Br)cnn2C)c2ccccc12,"inconclusive: 14.1 µM [inhibitor, single point]"
8,CCOC(=O)c1c(NC(=O)CSc2nnc(CNc3ccc(OC)cc3)n2C)sc(C)c1C,"inconclusive: 3.98 µM [inhibitor, full curve] and inconclusive: 12.6 µM [inhibitor, single point]"
9,CCN(CC)S(=O)(=O)c1cc(NC(=O)CNc2c(C)n(C)n(-c3ccccc3)c2=O)ccc1C,"inconclusive: 31.6 µM [inhibitor, single point]"
10,CC1CCCCC1NC(=O)c1ccc(CNc2c(N3CCCC3)c(=O)c2=O)cc1 (stereo not given),"inconclusive: 7.94 µM [inhibitor, partial curve]"
11,O=C1/C(=C/c2ccc(N3CCOCC3)o2)SC(=Nc2ccccc2)N1CCc1c[nH]c2ccccc12,active: 3.16 µM
12,Cc1ccsc1/C=N/Nc1ccc(Cl)nn1,"inconclusive: 11.2 µM [inhibitor, single point]"
13,COc1ccc(C(=O)Nc2cc(C)nn2-c2ccc(C)cc2)cc1,"inconclusive: 14.1 µM [inhibitor, single point]"
14,O=C1CC(c2cccc(Cl)c2)c2cc3c(cc2N1)CCC3 (stereo not given),"inconclusive: 4.47 µM [inhibitor, partial curve]"
15,Cc1ccc(-c2cc(C(F)F)nc(S(C)(=O)=O)n2)cc1,"inconclusive: 14.1 µM [inhibitor, single point]"
16,CCN(CC(=O)NC1CCS(=O)(=O)C1)S(=O)(=O)c1ccc(Br)cc1 (stereo not given),inactive
17,COc1ccc2nc(C)cc(SCC(=O)Nc3c(C)cccc3C)c2c1,"inconclusive: 28.2 µM [inhibitor, single point]"
18,CCCCNc1nc2c(c(=O)n(C)c(=O)n2C)n1CCC,"inconclusive: 11.2 µM [inhibitor, partial curve]"
19,O=C(O)c1cc(NCc2ccccc2)ccc1N1CCOCC1,inactive
20,CCOC(=O)C1=C(C)Nc2sc(C(=O)c3ccc(OC)cc3)c(N)c2C1c1ccc(C(=O)OC)cc1 (stereo not given),"inconclusive: 11.2 µM [inhibitor, partial curve]"
21,O=C(c1ccc2nc[nH]c2c1)N1CCN(c2ncc(C(F)(F)F)cc2Cl)CC1,"inconclusive: 22.4 µM [inhibitor, single point]"
22,CNC(=O)Cn1c(C)cc(=O)c2cccc(C)c21,inactive
23,CCOC(=O)N1CCN(C(=O)/C(=C\c2ccc(SC)cc2)NC(=O)c2ccccc2)CC1,inactive
24,CCCCn1c(-c2ccccc2)cnc1SCC(=O)NCCc1ccc(OC)c(OC)c1,active: 11.2 µM

row,SMILES,Potency
1,CC12CCC(C(=O)N3CCN(C(c4ccccc4)c4ccccc4)CC3)(OC1=O)C2(C)C (stereo not given),"inconclusive: 31.6 µM [inhibitor, single point]"
2,Cc1c(O)ccc(C(=O)CN2CCN(Cc3ccccc3)CC2)c1O,"inconclusive: 31.6 µM [inhibitor, single point]"
3,c1ccc(Cc2nnc3sc(-c4ccccn4)nn23)cc1,"inconclusive: 8.91 µM [inhibitor, partial curve]"
4,Oc1ccc(/C=N/Nc2nc(-c3ccccc3F)nc3ccccc23)c(O)c1,active: 11.2 µM
5,O=[N+]([O-])c1ccc(N/N=C/c2cccc(O)c2O)cc1,"inconclusive: 14.1 µM [inhibitor, partial curve]"
6,COCC(C)NC(=O)C1CC(c2cccc(Br)c2)=NO1 (stereo not given),active: 3.16 µM
7,CC(C)C1Cc2c(sc3ncnc(NN)c23)CO1 (stereo not given),"inconclusive: 31.6 µM [inhibitor, single point]"
8,O=Cc1cn(CCOc2ccccc2)c2ccccc12,inactive
9,COc1ccc(-n2nc3ccc(NS(C)(=O)=O)cc3n2)cc1Cl,"inconclusive: 31.6 µM [inhibitor, partial curve, poor fit]"
10,COc1ccc(Nc2nc(-c3c[nH]c4ccccc34)cs2)cc1,"inconclusive: 22.4 µM [inhibitor, single point]"
11,COC(=O)N/N=C(\C)c1ccc2ccccc2c1OC(F)F,"inconclusive: 12.6 µM [inhibitor, partial curve, poor fit]"
12,COC(=O)c1ccc(N2CCN(CC(=O)c3ccc(C)cc3)CC2)c([N+](=O)[O-])c1,"inconclusive: 28.2 µM [inhibitor, single point]"
13,Cc1ccc([N+](=O)[O-])cc1NC(=O)CN(C(=O)c1ccccc1Cl)C1CCCCC1,"inconclusive: 31.6 µM [inhibitor, single point]"
14,CCCCNC(=O)c1c[nH]c2ccc(S(=O)(=O)N3CCOCC3)cc2c1=O,"inconclusive: 7.94 µM [inhibitor, partial curve, poor fit]"
15,CS(=O)(=O)N1CCN(c2ccc(NC(=S)NC(=O)c3ccccc3[N+](=O)[O-])cc2)CC1,active: 12.6 µM
16,CCOc1cc(C(=O)NCCN2C(=O)S/C(=C\c3cccnc3)C2=O)cc(OCC)c1OCC,"inconclusive: 1.41 µM [inhibitor, full curve, poor fit]"
17,COc1ccc(Oc2nc3ccccc3n3cccc23)cc1,active: 11.2 µM
18,COc1ccc(C(=O)Nc2ccccc2N2CCN(C(=O)c3ccccc3)CC2)cc1Br,active: 10 µM
19,CCOc1ccccc1C(=O)N1c2ccccc2Sc2ccccc21,active: 11.2 µM
20,CC(Oc1ccc(C(=O)c2ccccc2)cc1)C(=O)Nc1ccc(S(N)(=O)=O)cc1 (stereo not given),"inconclusive: 14.1 µM [inhibitor, single point]"
21,COC(=O)COc1cccc(NC(=O)c2cc(OC)cc(OC)c2)c1,"inconclusive: 3.55 µM [inhibitor, partial curve]"
22,COc1ccc(-c2n[nH]c(C)c2-c2ccc(Cl)cc2)c(O)c1,"inconclusive: 8.91 µM [inhibitor, partial curve]"
23,CCN(CC)CCCNC(=O)c1cc(Nc2ccc(OC)cc2)nc2ccccc12,"inconclusive: 11.2 µM [inhibitor, partial curve, poor fit]"
24,O=C(c1cn(-c2ccccc2)nc1-c1cccs1)N1CCOCC1,inactive

row,SMILES,Potency
1,Cc1ccc2nc(-c3ccc(NC(=O)CN4CCN(C(=O)c5ccco5)CC4)cc3)sc2c1,"inconclusive: 2.82 µM [inhibitor, partial curve, poor fit]"
2,Oc1cccc(Nc2nc(N3CCOCC3)nc(N3CCOCC3)n2)c1,"inconclusive: 10 µM [inhibitor, partial curve, poor fit]"
3,CC1CC(C)CN(CCCNC(=O)c2cc3c(s2)-c2ccccc2OC3)C1 (stereo not given),active: 8.91 µM
4,O=C(NCCc1ccccc1)c1ccc(Cl)c(S(=O)(=O)N2CCCC2)c1,active: 10 µM
5,O=C(Nc1ccc(F)cc1)N1CCN(C/C=C/c2ccccc2)CC1,"inconclusive: 31.6 µM [inhibitor, single point]"
6,CCOC(=O)C1CCN(C(=O)COC(=O)CNS(=O)(=O)c2ccc(SC)c([N+](=O)[O-])c2)CC1,inactive
7,N#Cc1ccc(C(=O)Nc2cc(S(=O)(=O)N3CCOCC3)ccc2N2CCCC2)cc1,inactive
8,Cc1ccc2nc(SCC(=O)NCc3ccco3)c(C)cc2c1,inactive
9,C=CCn1c(SCC(=O)Nc2c(C)nn(Cc3ccccc3)c2C)nnc1C(O)c1ccccc1 (stereo not given),"inconclusive: 5.62 µM [inhibitor, single point] and inconclusive: 2.51 µM [inhibitor, full curve, poor fit]"
10,Fc1ccccc1NC(=S)NCCc1ccccc1,inactive
11,COc1ccc(CCNC(=O)CNC(=O)Cn2cnc3sc(C)c(C)c3c2=O)cc1OC,inactive
12,COCCn1c(SCC(=O)c2ccccc2)nc2ccccc2c1=O,"inconclusive: 8.91 µM [inhibitor, partial curve]"
13,COC(=O)C1(CC2CC(c3ccncc3)=NO2)CCN(C(=O)OC(C)(C)C)CC1 (stereo not given),"inconclusive: 11.2 µM [inhibitor, partial curve]"
14,Clc1ccc(-c2csc(N/N=C\c3cccnc3)n2)cc1,inactive
15,COc1ccc(-n2nc(C(=O)NCC(=O)NCc3ccco3)c3ccccc3c2=O)cc1Cl,"inconclusive: 22.4 µM [inhibitor, single point]"
16,O=C(c1c[nH]c2ccccc12)C(O)C(c1ccccc1)N1CCOCC1 (stereo not given),inactive
17,O=C(Cn1cc2c(n1)CCCC2)NC1CCCCCC1,inactive
18,CC(=O)Nc1ccc(S(=O)(=O)Nc2cc(S(=O)(=O)N3CCCCC3)ccc2O)cc1,inactive
19,O=C(Nc1ccccc1)c1cccn(Cc2ccccc2)c1=O,active: 10 µM
20,CCc1ccc(-c2nc(CN3CCC(C(=O)NCc4ccccc4OC)CC3)c(C)o2)cc1,active: 10 µM
21,O=C(Nc1nc(-c2ccc3ccccc3c2)cs1)C1CCN(S(=O)(=O)c2cccs2)CC1,"inconclusive: 2.51 µM [inhibitor, full curve]"
22,COCCN(C(=O)c1ccccc1F)c1nc(-c2ccc(OC)cc2)cs1,"inconclusive: 31.6 µM [inhibitor, single point]"
